This note sets out measurements from the supplement of paper PMC8183993.

Structures can show the parent of a compound that is named as a salt. ± gives the standard deviation of the averaged measurements. Whole data set: some 3,200 compounds, median “nuclei count (viability) relative to DMSO” near 99, cut for the lowest 2% near 16. The list shows a part of the results.

The test deals with U2OS. The experiment in a line: nuclei count (viability) relative to DMSO (% of DMSO); higher = more viable cells. Conditions: 10 µM; 24 h. As for the experimental part: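 Primary image-based screen in U2OS cells: compounds at 10 uM for 24 h, then a 1 h o-propargyl-puromycin (OPP) pulse, click labelling, and high-throughput microscopy. Mean cytoplasmic OPP intensity and nuclei count were normalised to DMSO wells within each plate (DMSO = 100) and averaged over triplicate plates.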
Turning to `Cc1cn([C@H]2C=C[C@@H](CO)O2)c(=O)[nH]c1=O` [Stavudine], the nuclei count stood at 109.2 ± 0.36.
With `C=C1CC[C@@H]2[C@](C)(CO)[C@H](O)CC[C@@]2(C)[C@@H]1C/C=C1/C(=O)OC[C@H]1O` [Andrographolide], the nuclei count was 73.1.
`OCc1ccccc1O[C@@H]1O[C@H](CO)[C@@H](O)[C@H](O)[C@H]1O` [Salicin (Salicoside, Salicine)] gave a nuclei count of 103.
`CN1C(CCl)Nc2cc(Cl)c(S(N)(=O)=O)cc2S1(=O)=O` (stereo not drawn) [Methyclothiazide]: the nuclei count is 101.
With `C=CC1=C(C(=O)O)N2C(=O)[C@@H](NC(=O)/C(=N\O)c3csc(N)n3)[C@H]2SC1` [Cefdinir (Omnicef)], the nuclei count worked out at 92.3.
In the case of `C=CC1=C(C(=O)O)N2C(=O)[C@@H](NC(=O)/C(=N\O)c3csc(N)n3)[C@H]2SC1` [Cefdinir], the nuclei count came out at 112.
The molecule `COc1ccc(NS(=O)(=O)c2ccc(I)cc2)cc1N1CCN(C)CC1` registered a nuclei count of 102.
As for `CNC(=O)c1cc(Oc2ccc(NC(=O)Nc3ccc(Cl)c(C(F)(F)F)c3)cc2)ccn1` [Sorafenib (Nexavar)], the nuclei count is 92.9.
The result for `CNC(=O)c1cc(Oc2ccc(NC(=O)Nc3ccc(Cl)c(C(F)(F)F)c3)cc2)ccn1` [Sorafenib] reads 85.4; that for `CNC(=O)c1cc(Oc2ccc(NC(=O)Nc3ccc(Cl)c(C(F)(F)F)c3)cc2)ccn1` [Sorafenib tosylate], 27.
Under `COc1cccc2c1C(=O)c1c(O)c3c(c(O)c1C2=O)C[C@@](O)(C(C)=O)C[C@@H]3O[C@H]1C[C@H](N)[C@H](O)[C@H](C)O1` [Daunorubicin HCl (Daunomycin HCl)] stands 10.2.
`COc1cccc2c1C(=O)c1c(O)c3c(c(O)c1C2=O)C[C@@](O)(C(C)=O)C[C@@H]3O[C@H]1C[C@H](N)[C@H](O)[C@H](C)O1` [Daunorubicin hydrochloride] yielded a nuclei count of 12.3.
On to `Cn1cc(CCn2cnc(-c3cnn(C)c3)c2-c2ccc(C#N)cc2)cn1`, for which the nuclei count was 92.9.
Under `CC(C)OC(=O)OCOP(=O)(CO[C@H](C)Cn1cnc2c(N)ncnc21)OCOC(=O)OC(C)C` [Tenofovir Disoproxil Fumarate] stands 92.2; under `CCCN(C/C=C/I)C1CCc2cccc(O)c2C1` (stereo not drawn) [8-Hydroxy-PIPAT oxalate], 86.9; under `C[C@@H]1C[C@H]2[C@@H]3CCC4=CC(=O)C=C[C@]4(C)[C@@]3(F)[C@@H](O)C[C@]2(C)[C@@]1(O)C(=O)COP(=O)(O)O` [Dexamethasone Sodium Phosphate], 109.
Under `Cc1cc(C)c(S(=O)(=O)Nc2ccccc2C(F)(F)F)c(C)c1` stands 99.2; under `CC(C)[C@H](CO)Nc1nc(Nc2ccc(C(=O)O)c(Cl)c2)c2ncn(C(C)C)c2n1` [Purvalanol B], 94.2.
